Hit rate of the full screen: of about 390,000 compounds, about 4,000 (1%) were called active. This list was built around the results that the source calls inconclusive (neither active nor inactive); the mix of calls is not that of the screen. Calls follow the shape of the dose curve; as a rule, active = well fitted inhibition curve with a large enough effect; inconclusive = small, poorly fitted or top-dose-only effect; inactive = no such curve, though single readings can be large or run the other way. Potencies of inconclusive entries are doubtful fits and often do not repeat.
target: Thioredoxin reductase 1, cytoplasmic (Rattus norvegicus) (UniProt O89049); assay: qHTS Assay for Inhibitors of Mammalian Selenoprotein Thioredoxin Reductase 1 (TrxR1): qHTS; settings: recombinant rTrxR1, NADPH fluorescence consumption, selenite substrate; series mostly up to 114 µM; activity change, negative = inhibition: at the top concentration; also: nearly all actives have a fitted effect of over 65% in size
Procedure, shortened: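 Rat TrxR1 (90 nM in the dispensed reagent) was pre-reduced with 400 uM NADPH for 5 min at room temperature, then incubated with compound for 15 min. After 400 uM selenite was added, NADPH fluorescence (Ex 340/Em 450 nm) was followed for 8 min.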
% is scaled to controls: 0 for no effect and ±100 for the full control effect; potency is read from the fitted curve at half-maximal effect; tags tell the direction and shape of the fitted curve.

Sequence of UniProt O89049 (O89049 whole entry, looked up): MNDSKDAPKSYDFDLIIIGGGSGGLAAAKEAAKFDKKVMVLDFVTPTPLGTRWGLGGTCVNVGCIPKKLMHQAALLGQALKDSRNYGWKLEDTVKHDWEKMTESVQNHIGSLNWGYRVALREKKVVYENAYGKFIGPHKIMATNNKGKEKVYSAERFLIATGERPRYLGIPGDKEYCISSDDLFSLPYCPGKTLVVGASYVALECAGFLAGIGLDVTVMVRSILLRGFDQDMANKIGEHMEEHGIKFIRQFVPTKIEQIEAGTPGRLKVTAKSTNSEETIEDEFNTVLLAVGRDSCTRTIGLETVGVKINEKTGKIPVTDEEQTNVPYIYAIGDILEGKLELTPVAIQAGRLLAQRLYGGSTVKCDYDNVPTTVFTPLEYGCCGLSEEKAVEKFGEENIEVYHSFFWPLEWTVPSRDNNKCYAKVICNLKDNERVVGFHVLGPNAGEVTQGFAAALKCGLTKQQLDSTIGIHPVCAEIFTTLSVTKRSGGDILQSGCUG

Row | Structure (SMILES) | Potency | activity change, negative = inhibition
1 | C=C(C)C1CC=C(C)/C(=N/NC(=O)COc2cccc(C)c2)C1 (configuration not stated) | inconclusive: 25.1 µM [inhibitor, single point] | –
2 | Cc1cc(=O)oc2cc(Oc3ccc([N+](=O)[O-])cc3[N+](=O)[O-])ccc12 | inconclusive: 44.7 µM [inhibitor, partial curve] | –
3 | Cc1ccc(C2SCC(=O)N2Cc2cn3ccsc3n2)o1 (configuration not stated) | inconclusive: 25.1 µM [inhibitor, partial curve] | –
4 | Cn1cccc1/C=N/NC(=O)Cc1ccccc1 | inconclusive: 39.8 µM [inhibitor, partial curve, poor fit] | –
5 | CCn1c(CCNC(=O)c2cccs2)nnc1SCC(=O)c1ccc(OC)cc1 | inconclusive: 22.4 µM [inhibitor, partial curve, poor fit] | –
6 | O=C(NC(=S)NC1CCCC1)c1ccccc1 | inconclusive: 50.1 µM [inhibitor, partial curve, poor fit] | –
7 | COc1ccc(C(C)=O)cc1COC(=O)c1ccc(N)c([N+](=O)[O-])c1 | inconclusive: 12.6 µM [inhibitor, partial curve, poor fit] | –
8 | C=C1c2cccc(C(F)(F)F)c2O[C@H](C(=O)OCC)[C@H]1OC | inconclusive: 3.16 µM [inhibitor, partial curve, poor fit] | –
9 | CCc1[nH]c(=O)c(C#N)c2c1CSC(C)(C)C2 | inconclusive: 63.1 µM [inhibitor, partial curve, poor fit] | –
10 | CCOC(=O)N1CCN(C(=O)c2ccc(S(=O)(=O)Nc3ccc(C)cc3)cc2)CC1 | – | inactive: 1.89% [at 11.4 µM]
11 | Cc1cc(Br)ccc1NC(=O)CN1C(=O)C2CC=CCC2C1=O (configuration not stated) | inconclusive: 20 µM [inhibitor, full curve] | –
12 | Cc1ccc(C)c(S(=O)(=O)NCC(c2ccco2)S(=O)(=O)c2ccc(F)cc2)c1 (configuration not stated) | inconclusive: 3.55 µM [inhibitor, full curve] | –
13 | O=C(Nc1nnc(COc2ccc(Cl)cc2)s1)c1cccs1 | inconclusive: 70.8 µM [inhibitor, single point] | –
14 | NS(=O)(=O)c1ccc(N/N=C2/CCCCC2C2CCCCC2)c([N+](=O)[O-])c1 (configuration not stated) | – | inactive: -9.85%
15 | O=C(N/N=C/c1ccc(-c2ccccc2C(=O)O)o1)c1cccs1 | inconclusive: 70.8 µM [inhibitor, partial curve] | –
16 | Cc1cc(N2C(=O)C(=O)/C(=C(/O)c3ccccc3)C2c2cccc(Br)c2)no1 (configuration not stated) | inconclusive: 89.1 µM [inhibitor, single point] | –
17 | CN1CCC(N(C)C(=O)/C(C#N)=C/c2ccccc2)CC1 | inconclusive: 39.8 µM [inhibitor, full curve] | –
